# In all, about 33,000 sequences were measured (“E-score (-0.5 to 0.5)”: median about -0.012, highest 2% from about 0.29 on). This is one part of the list.
# Molecular target: T1, Ybr033w (UniProt P38073)
# T1 sequence: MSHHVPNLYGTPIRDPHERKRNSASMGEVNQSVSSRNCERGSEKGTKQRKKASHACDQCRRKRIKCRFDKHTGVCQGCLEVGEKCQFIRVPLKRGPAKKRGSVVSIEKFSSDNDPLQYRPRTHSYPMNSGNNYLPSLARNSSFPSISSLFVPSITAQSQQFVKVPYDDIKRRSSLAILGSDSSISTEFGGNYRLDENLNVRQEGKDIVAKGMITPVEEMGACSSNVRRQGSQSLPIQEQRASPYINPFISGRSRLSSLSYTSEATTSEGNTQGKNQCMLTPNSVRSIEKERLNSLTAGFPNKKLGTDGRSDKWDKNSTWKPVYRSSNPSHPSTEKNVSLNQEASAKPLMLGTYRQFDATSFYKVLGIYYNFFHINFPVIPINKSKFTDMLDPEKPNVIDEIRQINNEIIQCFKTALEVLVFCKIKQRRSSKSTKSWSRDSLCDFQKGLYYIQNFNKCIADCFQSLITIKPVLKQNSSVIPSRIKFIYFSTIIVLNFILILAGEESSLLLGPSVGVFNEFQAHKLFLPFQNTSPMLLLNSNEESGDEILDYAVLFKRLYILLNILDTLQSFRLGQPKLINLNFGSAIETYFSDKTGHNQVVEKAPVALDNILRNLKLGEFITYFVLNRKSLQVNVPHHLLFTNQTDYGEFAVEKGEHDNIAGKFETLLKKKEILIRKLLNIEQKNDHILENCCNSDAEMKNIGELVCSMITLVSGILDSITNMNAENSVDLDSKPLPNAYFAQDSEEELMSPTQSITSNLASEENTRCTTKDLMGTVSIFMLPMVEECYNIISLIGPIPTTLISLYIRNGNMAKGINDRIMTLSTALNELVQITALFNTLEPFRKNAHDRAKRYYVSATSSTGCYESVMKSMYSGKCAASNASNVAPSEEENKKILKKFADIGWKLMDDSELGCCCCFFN
# Assay: PBM E-score (8-mer binding enrichment) (E-score (-0.5 to 0.5)); higher = stronger / more preferred TF binding; most listed sequences are background and not binding sites
# Conditions: protein concentration: 200 nM; construct: GST-full length
# Description: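 Universal 'all 10-mer' protein binding microarrays (Agilent AMADID 015681) probed with GST-tagged S. cerevisiae TFs (full-length or DBD) made by in vitro transcription/translation (PURExpress), about 100-200 nM. Bound TF was detected with fluorescent anti-GST. Each ungapped 8-mer (which stands for itself and its reverse complement) is scored by the PBM enrichment score (E-score), a modified Wilcoxon-Mann-Whitney statistic from -0.5 to +0.5, computed with the Universal PBM Analysis Suite. Scale: above 0.35 generally sequence-specific binding.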
row,Sequence,PBM E-score
1,TCATGACA,0.101
2,ATTAATCA,0.26
3,TCCCGTCA,-0.0539
4,CGCGATGA,0.051
5,AATGTCTG,0.0795
6,AATCGAGG,0.166
7,CTCCACAG,-0.141
8,CAATGTAA,0.173
9,CAAGTGAG,-0.16
10,AATAGAGT,0.0357
11,TAAAACGA,-0.0302
12,ATGTACCC,-0.15
13,ACAACCAG,0.102
14,TGCTTCAA,-0.0689
15,ACATTCCA,0.142
16,ATCCCAGA,-0.251
17,TCTATGAA,0.18
18,CCAAAACA,-0.026
19,CCACAGAG,-0.11
20,GGCTGCAA,-0.035
21,ACCTGCCA,-0.145
22,AGTCACAT,0.0586
23,TGTGGTAA,0.0658
24,CGTTAAGA,0.0447
25,TAATCGGA,0.0884

row,Sequence,PBM E-score
1,ATCCTCGA,0.131
2,CTCACAAC,0.094
3,AACCGGAC,0.00664
4,ACGGAAAA,0.422
5,CGCGAGAG,-0.0813
6,ATGGTCAC,-0.0478
7,ATGTAGCG,-0.165
8,ACCTCTCG,-0.107
9,AGGCAGTG,-0.0313
10,ATAGAGGA,-0.0197
11,GAGATCCC,0.0749
12,ACCGGCCA,-0.314
13,AGGCCGCC,-0.287
14,ACCTCAGA,-0.178
15,GAGATAAA,0.199
16,AATGGATC,0.0944
17,AGTACGAT,0.0266
18,CGGGGCGA,-0.145
19,AACCCAAG,0.0383
20,CAGTAGGC,0.0494
21,TGTACGAA,0.121
22,GTTATATA,0.154
23,CCGCGCGA,0.00927
24,ATCAACTC,0.083
25,CTCGAGAC,-0.0239

row,Sequence,PBM E-score
1,AAGTTGCA,-0.0761
2,AAGCGGCA,0.0443
3,GAAGCAAA,0.0788
4,ACGCCAGT,0.00472
5,ACCAACTC,-0.0506
6,CCAGAAAC,-0.0409
7,AGTCTAAA,0.103
8,CTTATACC,0.109
9,CTTCCGAC,0.0527
10,GGGGCCCC,-0.304
11,GTTTCGTA,0.172
12,CTTGTGGC,-0.108
13,ATTATAAT,0.205
14,GTACGTTA,0.177
15,ACCTCCGT,0.0387
16,CACTTAAC,0.167
17,CACGGCAC,-0.168
18,GGGTCTTA,-0.13
19,ACAATCAG,0.124
20,CCTTGTAA,0.168
21,ATTATTGC,0.225
22,CCGCCCGC,-0.0969
23,GATCAGAC,0.00463
24,AAGCCTCG,-0.158
25,TAGATTAA,0.312

row,Sequence,PBM E-score
1,AGACTCTA,-0.0647
2,CCTTCGAA,0.0559
3,CGAGCGTC,-0.183
4,CCCGGCTC,-0.271
5,ACACTAAT,0.0168
6,CGGCTGTC,-0.00597
7,CCCCTGTA,-0.13
8,CAATCAAA,0.111
9,AACAATCC,0.338
10,AGTTGTGA,0.26
11,AATACGGC,0.189
12,ACGAATAC,0.0881
13,GGAAACAA,0.101
14,ACACCATG,-0.0872
15,CCAAACAA,0.157
16,GCAGGAGC,-0.204
17,CACGTCGC,-0.17
18,ATCCACAA,0.125
19,ATTCCTTC,0.17
20,GAGATATA,0.142
21,CTATCGGC,-0.156
22,CGTTGTGC,-0.162
23,AAGGCGAC,-0.165
24,ACGGCAGT,-0.108
25,CACACTCG,0.173

row,Sequence,PBM E-score
1,CAGCTGAC,-0.0706
2,CGCGGTTC,-0.101
3,TAAGCGTA,-0.113
4,AGGAGGCG,-0.283
5,GAGGCACA,0.0123
6,CCTCTTCC,-0.19
7,ACTTGTAC,0.0434
8,ATGGTAGC,-0.104
9,GACGAACC,-0.134
10,GCCCAGTA,-0.0931
11,TACCCTCA,-0.0963
12,AGGGGCTC,-0.317
13,CCAGCGCA,-0.086
14,GTTACAAA,0.272
15,AAGGTACC,-0.202
16,AAAATCTT,0.255
17,AGAGGGAG,-0.227
18,CTTAGACC,-0.0729
19,ACAGTGAG,0.00771
20,ACCGGCAC,-0.179
21,GCTCACTA,-0.0185
22,CCTTCCAC,-0.0656
23,AATTACCT,0.187
24,GGGCATTA,-0.152
25,CTTAGCTC,-0.12

row,Sequence,PBM E-score
1,CAGGAAGG,-0.242
2,CTTCCATA,0.00603
3,CAGGTAGA,-0.138
4,AGATGATG,0.0362
5,ACCCCAGT,-0.0571
6,GTCGTTTA,0.0819
7,GGGGGGCA,-0.441
8,GGCCGTTA,0.0064
9,ACGGGCTG,-0.235
10,AGTTAACG,0.156
11,GGCTAGCC,-0.419
12,TGACCCCA,-0.185
13,CAGTCTAA,0.0811
14,TCGGTAGA,0.0295
15,GCCCCGAA,-0.0306
16,CAGCTCTA,-0.123
17,CTATGATA,0.113
18,AAGTTCCG,0.186
19,GTGCAGGA,-0.212
20,AAAAATCG,0.171
21,AAGCTCCT,-0.239
22,AAACGGGA,0.181
23,ACTTCTTA,0.0721
24,TACTGAGA,-0.0532
25,CAGCGCGA,-0.045

row,Sequence,PBM E-score
1,AGCGATCA,-0.0363
2,GGAGTAAC,0.0441
3,AGCATAGC,-0.189
4,GGTCTCTA,-0.00183
5,CGCTACCG,-0.117
6,GGTTGGTA,0.214
7,GCATCCCA,-0.256
8,AAAGCAGG,0.052
9,TGCCGGCA,-0.0771
10,CATGGGGG,-0.227
11,ACAACCTC,-0.129
12,ACCCGTAG,-0.324
13,CGCTTATC,-0.00322
14,ATCGCAAG,0.0744
15,CAGGGGCG,-0.319
16,CATTGCGG,-0.124
17,CTGTGTGA,0.00098
18,AACGACCT,-0.0289
19,GCGTGTGA,-0.0632
20,TTCATGAA,0.166
21,CTATATAG,0.0604
22,AGCCTGCA,0.0148
